Test results taken from PubChem BioAssay (NCI).
Where “and” joins values, the source holds several entries; their conditions need not be identical. Equal entries are not always repeated.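 The compound was tested at five concentrations on cells cultured in 96-well plates, with a 48-hour exposure period. The concentration for 50% growth inhibition is given as GI50. TGI denotes the concentration required for complete inhibition of growth.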

system: NCI-H322M lung; experiment: NCI-60 cell line screen, 48 h

| Structure (SMILES) | TGI | GI50 [µM] |
| --- | --- | --- |
| COc1ccc2c(c1)C1OCCNC1CC2 (stereo not given) | > 100 µM | – |
| O=C(O)CC1NC(/C(=C/c2ccccc2O)NC(=O)c2ccccc2)OC1=O (stereo not given) | > 100 µM | – |
| Cc1ccc(C2N=C(N)NC3=C2CCOc2c3ccc3ccccc23)cc1 (stereo not given) | > 92.2 µM | – |
| Cc1ccc(Nc2[nH]c(=O)[nH]c(=O)c2C)cc1Cl | > 100 µM | – |
| N.N.O=P([O-])([O-])CN(CCN(CP(=O)([O-])[O-])CP(=O)([O-])[O-])CP(=O)([O-])[O-].[Pt+2] | > 100 µM | > 100 |
| CCCC(N)C(=O)c1ccccc1 (stereo not given) | > 100 µM | – |
| CCOP(=O)(Nc1ccccc1P(=O)(OCC)OCC)OCC | > 100 µM | – |
| O=C1C=CC(=Nc2ccccc2)c2ccccc21 | 19.6 µM | – |
| O=S1(=O)NC2CCC3NS(=O)(=O)NC4CCC(N1)N4S(=O)(=O)N23 (stereo not given) | > 100 µM | – |
| CSc1cc(Br)ccc1-n1c(C(=O)c2ccccc2)c(SC)n(-c2ccccc2)c1=O | > 100 µM | – |
| O=C(COc1ccc(OCC(=O)NNC2=NC(c3cc(F)c(Cl)cc3Cl)CS2)c(Cl)c1)NNC1=NC(c2cc(F)c(Cl)cc2Cl)CS1 (stereo not given) | > 100 µM | – |
| Cc1ccc2c(c1)C1C(CO2)C(c2ccccc2)=NN1c1ccccc1 (stereo not given) | > 100 µM | – |
| Cc1nc2c(cc1C(=O)N/N=C/c1ccc([N+](=O)[O-])cc1)c(=O)n(C)c(=O)n2C | > 100 µM | – |
| N#Cc1ccsc1NC(=O)COC(=O)c1cccc(S(=O)(=O)N2CCc3ccccc32)c1 | > 100 µM | > 100 |
| Cc1ccc(S(=O)(=O)N2c3ccccc3[C@H]3CCC=C[C@H]32)cc1 | > 100 µM | – |
| O=C1C(Nc2ccc(Br)cc2)=C(I)C(=O)c2ncccc21 | 9.77 µM | 3.51 |
| CSc1ccc2c(c1)N(CCC1CCCCN1C)c1ccccc1S2 (stereo not given) | 22.2 µM | 7.14 |
| O=c1c2c(c3ccccc3n1-c1ccccc1)NC(=S)NC2c1ccc(Cl)cc1 (stereo not given) | 73.6 µM | 4.1 |
| NC(=O)C(=CNC(=S)Nc1ccc(Cl)c(Cl)c1)C(N)=O | > 100 µM | – |
| O=C(Nc1nc(C23CC4CC(CC(C4)C2)C3)cs1)c1cc2cc(Cl)ccc2oc1=O | > 100 µM | – |
| COc1cc2oc(-c3ccc(O)cc3O)c(CC=C(C)C)c(=O)c2c(O)c1/C=C/C(C)C | 16.5 µM | – |
| CCOC(=O)c1ccc2c(c1)nc(/C=C/c1ccc(Cl)cc1)n2-c1cc(C(C)(C)C)[nH]n1 | 81.1 µM | 3.68 |
| O=[N+]([O-])c1ccc(Sc2nc(Cl)nc(NC3CCCC3)n2)cc1 | > 10 µM | > 10 |
| N#CCCN(CCC#N)c1ccc(C(N=Nc2ccccc2)=Nc2ccc(Cl)cc2)cc1 | > 100 µM | – |
| Cc1c(/C=N/NC(=S)Nc2ccccc2)c(=O)n(-c2ccccc2)n1C | > 100 µM | – |

| Structure (SMILES) | TGI | GI50 [µM] |
| --- | --- | --- |
| Cc1[nH]c(C(=O)Nc2ccccc2OC2CCNCC2)c(Cl)c1Cl | 5.9 µM | 1.47 |
| CC(Oc1ccc(OCC2CCCCC2)cc1)C(=O)NCCO (stereo not given) | > 100 µM | – |
| CC(C)(C)OC(=O)NCCC(=O)NC1(c2cc3ccccc3s2)CCCCC1 | 47.5 µM | – |
| C[N+](C)(C)/N=C/c1ccc(O)c(O)c1 | > 100 µM | – |
| c1ccc(-c2nnc(SCc3c[nH]c4ccccc34)n2-c2ccccc2)cc1 | > 100 µM | – |
| O=C(O)C1C2C=CC(C2)C1C(=O)O (stereo not given) | > 100 µM | > 100 |
| O=c1c2ccccc2nc2n1C(c1ccc([N+](=O)[O-])cc1)C2(c1ccccc1)c1ccccc1 (stereo not given) | > 100 µM | – |
| CCOC(=O)/C(N=Nc1ccc(-n2c(C)nc3ccc(Br)cc3c2=O)cc1)=C(/C)O | > 100 µM | – |
| NCCCn1c2c(c3ccc([N+](=O)[O-])cc3c1=O)C(=O)c1cc(-c3ccccc3)ccc1-2 | 2.15 µM | 0.841 |
| CCOc1ccc(/C(C=O)=C(\Cl)c2ccc(OC)c(OC)c2)cc1 | > 100 µM | – |
| CCN(Cc1ccccc1Cl)c1ccc(CO)c(Cl)c1 | 20.8 µM | 7.56 |
| c1cnc2c(c1)-n1cccc1C1(CCSC1)NN2 (stereo not given) | > 100 µM | – |
| CC1(C)CCCC(C)(C2CCC3(C)C2C(O)CC2C4(C)CCC(O)C(C)(C)C4C(O)CC23C)O1 (stereo not given) | 49.8 µM | – |
| O=C(O)CCNC(=O)c1cc(N(CCBr)CCBr)c([N+](=O)[O-])cc1[N+](=O)[O-] | > 100 µM | – |
| OC(c1cc2ccccc2[nH]1)C1(c2cccnc2)SCCCS1 (stereo not given) | > 100 µM | – |
| Cc1ccc(/C=C/C(=N/N=C(N)N)c2ccccc2)cc1 | 21.1 µM | 6.87 |
| COc1cc(/C=C/c2nc(N)nnc2C)cc(OC)c1OC | > 62.1 µM | – |
| CCCCCCC/C=C/[C@H]1O[C@]2(O)C(=O)C=C3C[C@@H](O[C@@H]4O[C@H](CO)[C@@H](O)C(O)[C@@H]4O)C[C@@H]3[C@H]2C=C1C (stereo not given in full) | 10.5 µM | 5.32 |
| NCCCCCCCCCCCn1c2c(c3ccccc3c1=O)C(=O)c1ccccc1-2 | 11.8 µM | 3.78 |
| C=C1CCC2C3(C)COC(c4c(OC)cccc4OC)OC3CCC2(C)C1C/C=C1/C(=O)OCC1O (stereo not given) | 23.4 µM | 7.34 |
| O=c1oc2ccccc2c(O)c1/C=N/C(=S)NCc1ccccc1 | > 100 µM | – |
| O=C1C(Cl)C2(CC(/C=C/c3ccccc3O)=NN2c2cccc(S(=O)(=O)O)c2)N1c1nc2ccccc2s1 (stereo not given) | > 100 µM | – |
| NC(=S)N/N=C/c1ccc(N)cn1 | > 10 µM | – |
| COc1cccc(CCNc2c(C#N)c3nc4ccccc4n3c3ccccc23)c1 | > 79.1 µM | – |
| N#Cc1cc([N+](=O)[O-])ccc1NC(=O)C(F)(F)F | > 100 µM | – |

| Structure (SMILES) | TGI | GI50 [µM] |
| --- | --- | --- |
| O=C1C(=O)c2ccccc2C(O)=C1CCCc1ccc(C2CCCC2)cc1 | 43.9 µM | 8.42 |
| COC(=O)C1=Cc2cc(OC)c(OC)cc2[C@H](c2ccc(OC)c(OC)c2)C1C(=O)OC (stereo not given in full) | > 100 µM | – |
| CCOc1ccc2c(C)cc(=O)oc2c1 | > 100 µM | – |
| C[N+](C)(CCCCCC[N+](C)(C)CCCN1C(=O)c2cc3ccccc3cc2C1=O)CCCN1C(=O)c2cc3ccccc3cc2C1=O | > 37.5 µM | > 37.5 |
| Cc1cc(C)nc(SCC(=O)OC2CC(C)CCC2C(C)C)n1 (stereo not given) | 69.9 µM | – |
| Cc1[nH]n(C(=N)N)c(=O)c1CCO | > 100 µM | – |
| C#CC[C@@H]1C[C@]2(C)[C@H]3CC=C4[C@H]5[C@@H](C)[C@H](C)CC[C@]5(C(=O)NCCCN5CCN(CCCN)CC5)CC[C@@]4(C)[C@]3(C)CC[C@H]2C(C)(C)[C@H]1OC(C)=O | 3 µM | 1.63 |
| O=C1CCCC(=O)N1n1c(Cc2ccccc2)n[nH]c1=O | > 100 µM | – |
| COC(=O)C[CH2][Ge]([CH3])([CH3])[S]c1ccccc1 | > 100 µM | > 100 |
| CC1SC2(CCC(c3ccccc3)CC2)N(NC(=O)c2[nH]c3ccc(F)cc3c2-c2ccccc2)C1=O (stereo not given) | 49.5 µM | 18.4 |
| c1ccc(Nc2nc(-c3ccccn3)cs2)nc1 | – | 0.274 |
| COc1cc(CNC2=NCCC2)cc(OC)c1OC | > 100 µM | – |
| CC(C)(CCN=C(N)Nc1ccccn1)c1ccc(C(F)(F)F)cc1 | 28.6 µM | 15.1 |
| C[n+]1c2ccccc2n2c3ccccc3c(NCCc3ccccn3)c(C#N)c21 | 11.7 µM | – |
| CN(C)c1ccc(-c2c(C#N)c(O)n(NS(=O)(=O)c3ccccc3)c(=O)c2C#N)cc1 | > 100 µM | – |
| C=CCc1cc(C=C(C#N)C#N)cc(OC)c1O | > 100 µM | – |
| O=S(=O)(c1ccc(Br)cc1)N1CCN(S(=O)(=O)c2ccc(Br)cc2)CC1 | > 100 µM | – |
| COc1cccc2c3ccccc3c3nc[nH]c3c12 | > 100 µM | – |
| CCC/C(Cl)=N\OC(=O)Nc1cccc(C(F)(F)F)c1 | > 100 µM | – |
| c1ccc(CN2CCC3(CC2)SSC2(CCN(Cc4ccccc4)CC2)SS3)cc1 | > 100 µM | – |
| Cc1cc(S(=O)(=O)NC2=NC(c3ccccc3)c3cc(Cl)ccc3N2)c(S)cc1Cl (stereo not given) | > 100 µM | – |
| COC1(OC)N=C(N)C2(C#N)C3(C(=O)N(C(C)C)N=C3C)C12C#N (stereo not given) | > 100 µM | – |
| COc1ccc2c(c1)[n+]([O-])c(-c1ccc(Br)cc1)c(N)[n+]2[O-] | 96 µM | – |
| CCOC(=O)NC(C(=O)OCC)(N1CCN(c2cc3c(cc2F)c(=O)c(C(=O)O)cn3CC)CC1)C(F)(F)F (stereo not given) | > 100 µM | – |
| N=C(N)SCc1cc(Cl)cc(Cl)c1O | 57.2 µM | – |

| Structure (SMILES) | TGI | GI50 [µM] |
| --- | --- | --- |
| COC1=CC(=O)c2c(cc(COP(=O)(OCC3OC(n4cc(F)c(=O)[nH]c4=O)CC3O)N(C)CCCCCl)n2C)C1=O (stereo not given) | 95.7 µM | – |
| CC(=O)c1ccc(Nc2nc(Nc3ccc(F)cc3)nc(Nc3ccc(F)cc3)n2)cc1 | > 100 µM | 17.7 |
| c1cc2nnc1SCCCSc1ccc(nn1)SCCCSc1ccc(nn1)SCCCS2 | > 100 µM | – |
| CO/C(=C/C(=O)C(Cl)(Cl)Cl)CC/C(=C\C(=O)C(Cl)(Cl)Cl)OC | > 100 µM | – |
| C[C@H](NC(=O)n1c2ccccc2c2ccccc21)C(=O)O | > 100 µM | – |
| CC(=O)OC1CC2(C)OC(Cc3ccccc32)O1 (stereo not given) | > 100 µM | – |
| COc1ccc(N2C(=O)c3c(c4[nH]c5ccc(OC)cc5c4c4ccc(C(C)(C)C)cc34)C2=O)cc1 | > 100 µM | – |
| NC1=NN(c2ccccc2)C(=O)C1/C(=N\NC(=O)c1cc2ccccc2cc1O)C(=O)Nc1cccc(C(F)(F)F)c1 (stereo not given) | > 100 µM | – |
| COc1c2c(cc3c1OCO3)C13C=CC(OC)CC1N(CC3)C2 (stereo not given) | > 100 µM | – |
| COc1ccc(CNC(C)C(=O)O)cc1 (stereo not given) | > 100 µM | – |
| O=C(/C=C/c1ccccc1Cl)c1cccc2ccccc12 | 28.2 µM | – |
| Clc1nc(Cl)c2c3c(sc2n1)CCCC3 | > 100 µM | > 100 |
| C[C@]12CCC[C@H](O)[C@H]1C[C@H](CO)CC2 | > 100 µM | – |
| S=C(N/N=C/c1ccccn1)Nc1ccc(Cl)cc1 | > 100 µM | – |
| Cc1cc(=O)n2c3c(c4c(cc13)c(CO)cc(=O)n4C)OC2 | 59.8 µM | – |
| C=C1CC[C@@H]2[C@](C)(COC(C)=O)[C@H](OC(C)=O)CC[C@@]2(C)[C@@H]1CC(Nc1ccc(S(=O)(=O)Nc2cc(C)on2)cc1)C1=CCOC1=O (stereo not given in full) | 16.1 µM | 4.68 |
| COC(=O)C1=CC2CC1C(S(=O)(=O)c1ccccc1)C2S(=O)(=O)c1ccccc1 (stereo not given) | > 100 µM | – |
| C/C(=N\NC(=S)N1CCN(C2CCCCCC2)CC1)c1ccccn1 | 5.76 µM and 2.05 µM | < 0.001 |
| CCOC(=O)C1=C(C)N(Cc2ccccc2)C(=O)C1CC#N (stereo not given) | > 100 µM | – |
| N#CCOc1ccc(/C=C/C(=O)c2ccc(Cl)cc2)cc1 | > 100 µM | – |
| CC(=O)[CH-]C(=O)c1ccccc1.CC(=O)[CH-]C(=O)c1ccccc1.CC1(C)OCC(C2OC3OC(C)(C)OC3C2[O-])O1.CC1(C)OCC(C2OC3OC(C)(C)OC3C2[O-])O1.[Ti+4] (stereo not given) | 67.4 µM | 26.8 |
| COC(=O)N/N=C(\C(=O)Nc1cccc([N+](=O)[O-])c1)c1nc2ccc([N+](=O)[O-])cc2[nH]c1=O | > 100 µM | – |
| N#CC(Nc1cccc(C(F)(F)F)c1)c1ccccc1C(F)(F)F (stereo not given) | 15.2 µM | – |
| COc1cc(OC)c2c(=O)c(OC)c(-c3ccc4c(c3)OCO4)oc2c1OC | > 100 µM | – |
